PubChem BioAssay AID1159614 (National Center for Advancing Translational Sciences (NCATS), 2016)
About 65 (0.1%) of roughly 45,000 compounds were called active. The call rests on the fitted dose curve; in most records, active means well fitted activation curve with a large enough effect; inconclusive means small, poorly fitted or top-dose-only effect; inactive means no such curve, though single readings can be large or run the other way. This is one part of the list.

Biological target: Galactocerebrosidase (Homo sapiens) (UniProt P54803)
Sequence of UniProt P54803 (P54803 whole entry, looked up): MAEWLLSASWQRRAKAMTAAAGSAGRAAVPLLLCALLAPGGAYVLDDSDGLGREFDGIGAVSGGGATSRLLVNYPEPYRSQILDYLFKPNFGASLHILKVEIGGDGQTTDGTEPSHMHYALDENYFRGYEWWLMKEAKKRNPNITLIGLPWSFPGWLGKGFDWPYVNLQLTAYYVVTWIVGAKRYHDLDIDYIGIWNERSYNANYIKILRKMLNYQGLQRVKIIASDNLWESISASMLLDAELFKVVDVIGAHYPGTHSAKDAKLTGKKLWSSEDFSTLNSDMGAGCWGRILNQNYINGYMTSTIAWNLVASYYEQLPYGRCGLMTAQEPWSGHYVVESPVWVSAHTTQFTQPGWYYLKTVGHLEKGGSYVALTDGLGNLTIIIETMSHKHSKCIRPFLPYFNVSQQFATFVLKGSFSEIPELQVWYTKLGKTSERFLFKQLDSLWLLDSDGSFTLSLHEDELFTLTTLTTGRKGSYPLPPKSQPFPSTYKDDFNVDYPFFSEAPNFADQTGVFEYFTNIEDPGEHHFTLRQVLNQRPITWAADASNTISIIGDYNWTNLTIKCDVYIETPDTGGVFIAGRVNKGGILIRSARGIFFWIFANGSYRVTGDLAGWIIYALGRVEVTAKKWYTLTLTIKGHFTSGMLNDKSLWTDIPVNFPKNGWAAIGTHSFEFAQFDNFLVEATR
Assay: A Novel Cell-Based Assay to Identify Small Molecules for B -Galactocerebrosidase; further: 0% is about no effect; nearly all actives have a fitted effect of over 65% in size
Conditions: 145M-Twi-hGALC-G270D cells (Twitcher mouse brain line with human GALC G270D), HMU-beta-Gal fluorescence, 48 h; series mostly up to 57.5 µM; activation: at the top concentration
Text: Lysosomal storage diseases (LSDs) are caused by genetic mutations in genes encoding proteins important for normal lysosomal function. Globoid cell leukodystrophy (GLD), mostly known as Krabbe disease, is a prototype of the neurological LSDs caused by deficiency of beta-galactocerebrosidase (GALC). In brain specimens of GLD patients, psychosine levels are substantially elevated. At elevated concentrations, psychosine becomes cytotoxic to neuronal cells, particularly to oligodendrocytes (OLG), neural cells responsible for myelin formation. Therefore, the biochemical disturbances in GLD are manifested by different degrees of brain demyelination resulting in a broad spectrum of neurological manifestations. Most of the FDA-approved therapies are based on enzyme replacement therapeutic (ERT) agents, which treat non-neurological symptoms of Gaucher disease, Fabry disease, few mucopolysaccharidoses and Pompe disease. Unfortunately, in GLD, a primarily neurological LSD, ERT agents, as large molecular weight molecules unable to cross the blood-brain barrier, which makes this an inefficacious therapeutic approach. In GLD, increasing the residual GALC activity just above the critical threshold (~10% of wild type enzymatic activity), the cytotoxic levels of psychosine will be reduced, avoiding the OLGs apoptosis and the subsequent demyelination process. This will translate in disease stabilization and amelioration of GLD patient symptoms.
A cell-based assay in 1,536-well plate format was developed to implement a quantitative high-throughput screening (qHTS) assay using GLD-disease relevant cells to identify small molecules that produce enhancements of the residual enzymatic activity levels of mutants GALC found and prevalent in GLD patients. Compounds that are active may therefore have some therapeutic application for GLD. After the treatment of live cells for a determined period, using a fluorescent GALC specific substrate, the mutant residual GALC activity is measured. This cell-based qTHS assay was used to screen part of the MLPCN library for small molecule able to increase the mutant GALC enzymatic activity. In this assay, increased fluorescent signal corresponds to enhanced levels of mutant GALC residual enzymatic activity. Activation is the desired outcome for this assay.
NIH Chemical Genomics Center [NCGC]
NIH Molecular Libraries Probe Centers Network [MLPCN]
Assay Submitter (PI): Gustavo Maegawa MD,PhD, University of Florida, Gainesville, FL
2)#Two cell lines were established for the assay: 145M-Twi-hGALC-G270D (brain-derived Twitcher cell line stably expressing human GALC-G270D) and 145M-Twi-hGALC-WT (same 145M-Twi stably expressing human GALC wild type). The Twitcher is the murine C57B/6 model for GLD with naturally occurring homozygous nonsense GALC mutation. The 145M-Twi cell line was established at Maegawa lab (Ribbens J et al 2014).
a.#Media: DMEM/F12 (1:1) with 10% fetal bovine-serum (FBS) with penicillin/streptomycin (PS-1X - 100 I.U./mL of penicillin+100 ug/mL of streptomycin).
b.#The 6-Hexadecanoylamino-4-methylumbelliferyl-b-D-galactoside (HMU-B-gal) substrate was prepared as per Wiederschain et al 1992. Using 20-mL borosilicate tubes, 2.20 mg of HMU-b-Gal was added in each tube to prepare substrate-film with a final air-nitrogen stream evaporation to remove all diluent solvents.
c.#The HMUb-Gal substrate buffer consists of 0.2 M Na2HPO4 (sodium phosphate dibasic)/ 0.1 M Citric Acid with the pH adjusted to 5.2 using HCl. Sodium Azide at 0.02% and Sodium Taurocholate (NaTC) at 1 mg/mL were added to this substrate buffer.
d.#The HMU-b-Gal stopping buffer consist of 0.5 M NaHCO3 (sodium bicarbonate) /0.5 M Na2CO3 (sodium carbonate). […] Triton X-100 at 0.25% was added.
4)#Preparation of HMU-b-Gal substrate tubes
Adding 18.6 mL of the HMUb-Gal substrate buffer to each 20-mL tube (2.20 mg of HMU-b-Gal) will reach a concentration of 0.2 mM. Vortex well the tube until the solution is fully homogenized (clear cloudy solution). […]

SMILES	activation
COc1ccc(-c2nc(CCNC(=O)Cc3ccc(F)cc3)cs2)cc1	inactive: 1.28%
Nc1ccc(C(=O)NCC(=O)O)cc1	inactive: -11.1%
COc1ccc(NS(=O)(=O)c2ccc(N)cc2)nn1	inactive: -6.9%
CCOC(=O)N1CCc2c(sc3c2c(=O)n(CCc2ccccc2)c(=O)n3Cc2ccc(C)cc2C)C1	inactive: -7.1%
c1ccc(CNc2ncnc3[nH]ncc23)cc1	inactive: -20.7%
O=C(NC1CC(=O)N(c2ccccc2)C1)c1cccs1 (stereo not drawn)	inactive: -8.81%
Cc1cccc(N2CCN(C(=O)CCNS(=O)(=O)c3ccc4c(c3)CCN4C(=O)C3CC3)CC2C)c1 (stereo not drawn)	inactive: -41.2%
CCc1ccccc1NC(=O)N1CC(CC)Oc2ccc(Cl)cc21 (stereo not drawn)	inactive: -11.1%
COc1ccc(N2CCN(C(=O)c3c(C)nn(-c4ccc(F)cc4)c3-n3cccc3)CC2)cc1	inactive: -37.2%
CSc1ccc(CCNC(=O)c2ccc3c(c2)nc2n3CCC(C)C2)cc1 (stereo not drawn)	inactive: -19.9%
CCOCCc1nn2c(=O)cc(COC(=O)c3ccccc3NC(=O)c3cccs3)nc2s1	inactive: -6.91%
CCN1C(C(=O)c2ccccc2)=C(OC(=O)c2ccc(Cl)cc2)c2ccccc2S1(=O)=O	inactive: -0.159%
Cc1cccc(OC(C)C(=O)N2CCC(c3nc4ccccc4o3)CC2)c1C (stereo not drawn)	inactive: -19.1%
CCOc1ccc(Br)cc1C1C(C(=O)Nc2ccccc2OC)=C(C)Nc2nnnn21 (stereo not drawn)	inactive: -5.54%
CCc1ccc2oc(-c3cccc(NC(=O)c4ccc(-c5cccc([N+](=O)[O-])c5)o4)c3)nc2c1	inactive: -14.6%
COc1cccc(CN2c3ccccc3-c3nc(SCC(=O)Nc4cccc(C)c4)ncc3S2(=O)=O)c1	inactive: -12.4%
COc1ccc(-c2cc(C(F)(F)F)nc(NCc3ccccc3)n2)cc1OC	inactive: -2.51%
CCOc1ccc(NCc2cccn2-c2nnc(N3CCC(C(=O)NC(C)c4ccccc4)CC3)s2)cc1 (stereo not drawn)	inactive: -10.5%
CC1CCc2c(sc3nnn(CC(=O)Nc4cccc(C(F)(F)F)c4)c(=O)c23)C1 (stereo not drawn)	inactive: -11.6%
COc1ccc(-n2c(=O)c3c4c(sc3n(Cc3ccccc3)c2=O)CCC4)c(OC)c1	inactive: -8.84%
CC(=O)N1c2ccc(S(=O)(=O)NCCc3cccc(C)c3)cc2CC1C (stereo not drawn)	inactive: -6.04%
Cc1oc(-c2ccc(C(=O)N(C)Cc3ccccc3)cc2)nc1CN1CCc2ccccc21	inactive: -31.8%
CCOC(=O)c1cccc(NC(=O)N2Cc3ccccc3Oc3ncccc32)c1	inactive: -33.5%
CCn1c(=O)c(=O)n(CC)c2cc(N3CCCCC3)c(NC(=O)c3cccc(OC)c3)cc21	inactive: -20.3%

SMILES	activation
CCOc1cccc(NC(=O)CSc2ncc(-c3ccc(Cl)cc3)[nH]2)c1	inactive: -14%
CCN(C(=O)c1cc(S(=O)(=O)N2CCCCC2)c[nH]1)c1ccc(OC)cc1	inactive: 1.42%
CCOC(=O)c1ccc(-c2ccc(/C=C(\C#N)C(=O)Nc3cccc(C)c3)o2)cc1	inactive: -9.05%
Cc1ccc(NC(=O)CC2Sc3ccccc3NC2=O)c(C)c1 (stereo not drawn)	inactive: -3.32%
CC1(C)OC(=O)NC1=O	inactive: -19.4%
CCOc1ccc(-n2c(-c3ccc(OC)cc3)cc3c2CC(C)(C)CC3=O)cc1	inactive: -1.87%
C=Cc1ccc(CSc2nc(-c3ccc(Cl)cc3)nc3c2Cc2c(CO)cnc(C)c2O3)cc1	inactive: -9.42%
Cc1cccc(C)c1NC(=O)C1CCN(S(=O)(=O)c2cccc3nsnc23)CC1	inactive: -26.6%
Cn1c(NCc2ccccc2F)nc2ccccc21	inactive: -13%
COc1cc(Cl)c(C)cc1NC(=O)CSCc1nc(-c2ccc(OC)c(OC)c2)no1	inactive: -13.2%
Cc1ccc(C)c(Cn2cc(CCC(=O)NC3CCCCC3)c3ccccc32)c1	inactive: 1.71%
CCOc1ccccc1C(=O)N1CCc2cc(OC)c(OC)cc2C1COc1ccc2c(C)cc(=O)oc2c1 (stereo not drawn)	inactive: -10.9%
Cc1ccc(-n2ncc3c(Nc4ccc5c(c4)OCCO5)ncnc32)cc1C	inactive: -23.2%
COc1ccc(CNC(=O)c2cnn(-c3ccc(C)cc3)c2C2CCN(C(=O)OC(C)(C)C)CC2)cc1	inactive: -46.7%
COc1ccc(-c2nc(SCC(=O)NC3CCCC3)c(-c3ccccc3)[nH]2)cc1OC	inactive: -21.7%
CCOC(=O)C1CCN(C(=O)c2ccc3c(c2)sc2nc(-c4ccc(OCC)cc4)cn23)CC1	inactive: -14.5%
Cc1ccc(NC(=O)Cn2ccn(Cc3ccc(Cl)cc3)c(=O)c2=O)cc1C	inactive: -12.8%
COc1ccc(OC)c(Nc2cc(C(=O)NCc3ccccc3)c3ccccc3n2)c1	inactive: 22.2%
CC(=O)c1cccc(-n2c(CCC(=O)O)ccc2-c2ccccc2)c1	inactive: -2.78%
CCN1CCN(C(c2ccc(Cl)cc2)c2c(O)cc(C)n(CCOC)c2=O)CC1 (stereo not drawn)	inactive: -12.5%
Cc1nc2ncnn2c(C)c1CCC(=O)NCc1ccc(Cl)cc1	inactive: -15.2%
O=C(CSc1ncc(S(=O)(=O)c2ccc(Br)cc2)c(=O)[nH]1)NCc1ccccc1Cl	inactive: -13.4%
CCOc1ccc(NC(=O)NC(CC)Cn2nnc3ccccc3c2=O)cc1 (stereo not drawn)	inactive: 13.3%
Cc1ccc(OCCSc2nc3ccccc3n2CCC(=O)O)cc1C	inactive: -10.3%
